The whole screen tested about 310,000 compounds, of which about 18,000 (5.8%) were called active. Inconclusive means that the source gave no clear call. Such entries were picked first, then a sample of the others. The call rests on the fitted dose curve; in most records, active means well fitted inhibition curve with a large enough effect; inconclusive means small, poorly fitted or top-dose-only effect, or another doubt; inactive means no such curve, though single readings can be large or run the other way. No potency is given beside an inconclusive call; the fits are too rough.
Test: Primary qHTS for delayed death inhibitors of the malarial parasite plastid, 48 hour incubation
Details: P. falciparum luciferase growth in erythrocytes; series mostly up to 28.7 µM
How it was run: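 Firefly luciferase activity from engineered P. falciparum reports growth; inhibitors lower the luminescent signal. Cultures contained 2% hematocrit erythrocytes at 0.1% final parasitemia.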
Potency means the concentration at half of the fitted maximal effect; tags describe the fitted curve by direction and shape.

Compound	Potency
O=C(NC1CCCC1)C(c1cccs1)N(C(=O)c1ccco1)c1ccc2c(c1)OCO2 (configuration not stated)	inconclusive [inhibitor, partial curve, poor fit]
CCCC(C(=O)NC(C)(C)CC)N(CC1CCCO1)C(=O)CNS(=O)(=O)c1ccc(F)cc1 (configuration not stated)	inconclusive [inhibitor, partial curve, poor fit]
CCC1CCCCN1CCN1C(=O)C2C(C(=O)Nc3ccc(OC)cc3)C3C=CC2(O3)C1C(=O)NC1CCCCC1 (configuration not stated)	inconclusive [inhibitor, partial curve, poor fit]
CC(Oc1ccc(-c2ccccc2)cc1)C(=O)N/N=C/c1cccnc1 (configuration not stated)	inconclusive [inhibitor, single point]
CC(Oc1ccccc1)C(=O)N1CCN(C(=O)C(C)Oc2ccccc2)CC1 (configuration not stated)	inconclusive [inhibitor, partial curve]
CCn1c2ccccc2c2nnc(SCC(=O)Nc3cc(C)on3)nc21	inconclusive [inhibitor, partial curve, poor fit]
CCN(CC)C(=O)c1ccc(-c2cccs2)s1	inconclusive [inhibitor, partial curve, poor fit]
Cc1noc(NC(=O)c2c(-c3c(Cl)cccc3Cl)noc2C)c1[N+](=O)[O-]	inconclusive [inhibitor, single point]
N#Cc1c(SCC(=O)Nc2nc3ccc(Br)cc3s2)sc2c(O)cc(=O)[nH]c12	inconclusive [inhibitor, single point]
C/C(=N\Nc1cc(Cl)nc(C)n1)c1ccc(Cl)c(Cl)c1	inconclusive [inhibitor, partial curve, poor fit]
Brc1cccc(OCCCN2CCCCCC2)c1	inconclusive [inhibitor, partial curve]
O=C(C[n+]1cc(-c2ccc(Br)cc2)n2c1CCCCC2)c1ccccc1	active: 1.65 µM
CN(CC(=O)Nc1cccc(F)c1)CC(=O)Nc1cccc(S(N)(=O)=O)c1	inactive
Cc1c(NS(=O)(=O)c2cc(NC(=O)CCN3CCCC(C)C3)ccc2Cl)c(=O)n(-c2ccccc2)n1C (configuration not stated)	inconclusive [inhibitor, partial curve, poor fit]
Cc1cc(C)c2c(c1)cc(C)c1nnc(SCC(=O)Nc3ccccc3N3CCOCC3)n12	inconclusive [inhibitor, single point]
O=C(CSc1nnc(NC(=O)c2c(F)cccc2F)s1)NC1CC1	inactive
COc1ccccc1CCNC(=O)COc1cccc2c1OC(C)(C)C2	inconclusive [inhibitor, partial curve]
COc1ccc(/C(N)=N/OC(=O)c2ccco2)cc1	inactive
CCN(CC)c1ccc(-c2nnc(SCC(=O)Nc3ccccc3C#N)n2-c2ccccc2)cc1	inconclusive [inhibitor, partial curve]
c1ccc(-c2noc(CN3CCN(C(c4ccccc4)c4ccccc4)CC3)n2)cc1	inconclusive [inhibitor, single point]
C#CCOCCOCCOCCNc1nc(N2CCOCC2)nc(N2CCN(C(=O)CCCCCCCCCCNC(=O)[C@@H]([C@H](C)CC)n3cc(CCCCCN)nn3)CC2)n1	active: 1.17 µM

Compound	Potency
CCOc1ccccc1Nc1nc(-c2sc(NC(=O)c3ccco3)nc2C)cs1	active: 14.7 µM
Cc1ccc(NS(=O)(=O)c2cccc(C(=O)NCC(c3ccco3)N3CCCCC3)c2)cc1 (configuration not stated)	inconclusive [inhibitor, partial curve, poor fit]
COc1ccc(OCc2cc(C(=O)NCC3CCOCC3)no2)c(Cl)c1	inactive
CC(=O)c1ccc(N2CCN(C(=O)CCNC(=O)Cn3ccc4ccccc4c3=O)CC2)cc1	inconclusive [inhibitor, partial curve, poor fit]
N#CCCN(Cc1ccccc1)S(=O)(=O)c1cccs1	inactive
O=C(NCCc1ccc(Cl)cc1)c1nnc(Cc2ccc(Cl)cc2)o1	inactive
CCOC(=O)c1oc2nc3c(cc2c1N)CCCC3	inactive
COc1ccc(/C=C/c2cc(=O)c3cc(Cl)ccc3o2)cc1	inactive
CCc1sc(C(=O)NCCc2ccc(S(N)(=O)=O)cc2)cc1C	inactive
CCOC(=O)N1CCC(Nc2ncnc3c2cnn3-c2ccccc2)CC1	inconclusive [inhibitor, partial curve]
O=C(COc1cccc(C(F)(F)F)c1)N1CCN(c2ccccc2O)CC1	inconclusive [inhibitor, single point]
Nc1nnc(SCC(=O)Nc2nnc(-c3ccccc3)o2)s1	inconclusive [inhibitor, single point]
COc1ccc(CNC(=O)c2cc3c(s2)CN(Cc2ccccc2)C3)cc1	inconclusive [inhibitor, single point]
CCCCn1c(N)c(N(CC(C)C)C(=O)c2cc(-c3ccncc3)nc3ccccc23)c(=O)[nH]c1=O	inconclusive [inhibitor, partial curve]
COc1cc(C2=NOC(C(=O)NCc3ccc(F)cc3)C2)cc(OC)c1OC (configuration not stated)	inconclusive [inhibitor, single point]
CSCCC(NC(=O)c1ccco1)C(=O)NCC1CCCO1 (configuration not stated)	inconclusive [inhibitor, single point]
CN1CCN(Cc2ccc(OCc3ccccc3)cc2)CC1	inactive
COc1cccc(-c2nn(C)c3sc(C(=O)NCc4ccc(C)o4)cc23)c1	inconclusive [inhibitor, single point]
O=C(NCCCN1CCOCC1)c1c(O)c2ccccc2[nH]c1=O	inactive
Cc1sc(NC(=O)c2ccco2)c(CN2CCCCC2)c1C	inconclusive [inhibitor, partial curve]
Cc1ccc(C(C)C)c(OCc2ccc(C(=O)N/N=C/c3ccc(O)c(O)c3)cc2)c1	inconclusive [inhibitor, partial curve, poor fit]

Source: PubChem BioAssay AID504832 (National Center for Advancing Translational Sciences (NCATS), 2011)
